The IC50 comes from the fitted curve, where viability falls to half of the control; fits outside the tested doses are given as limits. The AUC spans the tested range (256-fold, ending at the top dose) of the same fit: 1 means no effect, lower means more sensitive.
compound: CC[C@H](Nc1ncnc2[nH]cnc12)c1nc2cccc(F)c2c(=O)n1-c1ccccc1 [CAL-101]; assay: Viability of human cancer cell lines after 72 h of drug (GDSC screen)
Protocol: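 Human cancer cell lines in 384-well plates, medium with 10% serum, drug for 72 h over a 256-fold dose range (nine 2-fold or five 4-fold steps up to the top dose). Adherent lines were fixed and stained with the nucleic acid dye Syto60, suspension lines read with resazurin; signal relative to control wells, capped at 0 and 100%. One two-parameter sigmoid per drug and line, fitted in a mixed model over all curves with the slope shared within a line.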

Cell Line | AUC | IC50 [µM]
IST-SL2 (small cell lung carcinoma, suspension, top dose 20 µM) | 0.894 | > 20
J82 (bladder, adherent, top dose 20 µM) | 0.969 | > 20
JAR (urogenital system, adherent, top dose 20 µM) | 0.893 | > 20
JEG-3 (urogenital system, adherent, top dose 20 µM) | 0.988 | > 20
JHH-1 (liver, adherent, top dose 20 µM) | 0.849 | 17
JHH-2 (liver, adherent, top dose 20 µM) | 0.983 | > 20
JHH-4 (liver, adherent, top dose 20 µM) | 0.961 | > 20
JHH-6 (liver, adherent, top dose 20 µM) | 0.986 | > 20
JHH-7 (liver, adherent, top dose 20 µM) | 0.989 | > 20
JHOS-2 (ovary, adherent, top dose 20 µM) | 0.979 | > 20
JHOS-3 (ovary, adherent, top dose 20 µM) | 0.964 | > 20
JHU-011 (head and neck, adherent, top dose 20 µM) | 0.943 | > 20
JHU-022 (head and neck, adherent, top dose 20 µM) | 0.947 | > 20
JIMT-1 (breast, adherent, top dose 20 µM) | 0.969 | > 20
JJN-3 (haematopoietic neoplasm, suspension, top dose 20 µM) | 0.983 | > 20
JM1 (B-cell lymphoma, suspension, top dose 20 µM) | 0.878 | 15.4
JSC-1 (B-cell lymphoma, suspension, top dose 20 µM) | 0.917 | > 20
JURL-MK1 (chronic myeloid leukaemia, suspension, top dose 20 µM) | 0.975 | > 20
JVM-2 (lymphoid neoplasm, suspension, top dose 20 µM) | 0.921 | > 20
JVM-3 (lymphoid neoplasm, suspension, top dose 20 µM) | 0.987 | > 20
JiyoyeP-2003 (Burkitt lymphoma, suspension, top dose 20 µM) | 0.991 | > 20

Cell Line | AUC | IC50 [µM]
K2 (melanoma, adherent, top dose 20 µM) | 0.975 | > 20
K5 (thyroid, adherent, top dose 20 µM) | 0.944 | > 20
KALS-1 (glioma, adherent, top dose 20 µM) | 0.879 | > 20
KARPAS-45 (lymphoblastic leukaemia, suspension, top dose 20 µM) | 0.684 | 3.7
KARPAS-299 (anaplastic large cell lymphoma, suspension, top dose 20 µM) | 0.983 | > 20
KARPAS-620 (haematopoietic neoplasm, suspension, top dose 20 µM) | 0.745 | 5.53
KASUMI-1 (acute myeloid leukaemia, suspension, top dose 20 µM) | 0.633 | 2.92
KCL-22 (chronic myeloid leukaemia, suspension, top dose 20 µM) | 0.966 | > 20
KE-37 (lymphoblastic leukaemia, suspension, top dose 20 µM) | 0.644 | 2.82
KELLY (neuroblastoma, adherent, top dose 20 µM) | 0.989 | > 20
KG-1 (acute myeloid leukaemia, suspension, top dose 20 µM) | 0.936 | > 20
KGN (ovary, adherent, top dose 20 µM) | 0.854 | > 20
KINGS-1 (glioma, adherent, top dose 20 µM) | 0.946 | > 20
KLE (endometrium, adherent, top dose 20 µM) | 0.893 | > 20
KM12 (large intestine, adherent, top dose 20 µM) | 0.972 | > 20
KM-H2 (Hodgkin lymphoma, suspension, top dose 20 µM) | 0.965 | > 20
KMH-2 (thyroid, adherent, top dose 20 µM) | 0.97 | > 20
KMOE-2 (acute myeloid leukaemia, suspension, top dose 20 µM) | 0.934 | > 20
KMRC-1 (kidney, adherent, top dose 20 µM) | 0.98 | > 20
KMRC-20 (kidney, adherent, top dose 20 µM) | 0.984 | > 20
KMS-11 (myeloma, suspension, top dose 20 µM) | 0.991 | > 20

Cell Line | AUC | IC50 [µM]
KMS-12-BM (myeloma, suspension, top dose 20 µM) | 0.913 | > 20
KNS-42 (glioma, adherent, top dose 20 µM) | 0.98 | > 20
KNS-81-FD (glioma, adherent, top dose 20 µM) | 0.959 | > 20
KON (head and neck, adherent, top dose 20 µM) | 0.985 | > 20
KOPN-8 (B-cell leukaemia, suspension, top dose 20 µM) | 0.925 | > 20
KP-1N (pancreas, adherent, top dose 10.24 µM) | 0.896 | > 10.2
KP-2 (pancreas, adherent, top dose 20 µM) | 0.933 | > 20
KP-3 (pancreas, adherent, top dose 20 µM) | 0.932 | > 20
KP-4 (pancreas, adherent, top dose 20 µM) | 0.911 | > 20
KP-N-YN (neuroblastoma, adherent, top dose 20 µM) | 0.986 | > 20
KP-N-YS (neuroblastoma, adherent, top dose 20 µM) | 0.922 | > 20
KS-1 (glioma, adherent, top dose 20 µM) | 0.902 | > 20
KU812 (chronic myeloid leukaemia, suspension, top dose 20 µM) | 0.41 | 0.724
KU-19-19 (bladder, adherent, top dose 20 µM) | 0.986 | > 20
KURAMOCHI (ovary, adherent, top dose 20 µM) | 0.902 | > 20
KY821 (leukaemia, suspension, top dose 20 µM) | 0.985 | > 20
KYAE-1 (oesophagus, suspension, top dose 20 µM) | 0.852 | 18.1
KYM-1 (rhabdomyosarcoma, adherent, top dose 20 µM) | 0.991 | > 20
KYSE-50 (oesophagus, adherent, top dose 20 µM) | 0.901 | > 20
KYSE-70 (oesophagus, adherent, top dose 20 µM) | 0.975 | > 20
KYSE-140 (oesophagus, adherent, top dose 20 µM) | 0.962 | > 20

Cell Line | AUC | IC50 [µM]
KYSE-150 (oesophagus, adherent, top dose 20 µM) | 0.985 | > 20
KYSE-180 (oesophagus, adherent, top dose 20 µM) | 0.966 | > 20
KYSE-220 (oesophagus, adherent, top dose 20 µM) | 0.924 | > 20
KYSE-270 (oesophagus, adherent, top dose 20 µM) | 0.991 | > 20
KYSE-410 (oesophagus, adherent, top dose 20 µM) | 0.965 | > 20
KYSE-450 (oesophagus, adherent, top dose 20 µM) | 0.883 | 19.4
KYSE-510 (oesophagus, adherent, top dose 20 µM) | 0.981 | > 20
KYSE-520 (oesophagus, adherent, top dose 20 µM) | 0.922 | > 20
L-363 (myeloma, suspension, top dose 20 µM) | 0.975 | > 20
L-428 (Hodgkin lymphoma, suspension, top dose 20 µM) | 0.981 | > 20
L-540 (Hodgkin lymphoma, suspension, top dose 20 µM) | 0.985 | > 20
L-1236 (Hodgkin lymphoma, suspension, top dose 20 µM) | 0.981 | > 20
LAMA-84 (chronic myeloid leukaemia, suspension, top dose 20 µM) | 0.939 | > 20
LAN-6 (neuroblastoma, adherent, top dose 20 µM) | 0.975 | > 20
LB373-MEL-D (melanoma, adherent, top dose 20 µM) | 0.981 | > 20
LB647-SCLC (small cell lung carcinoma, semi-adherent, top dose 20 µM) | 0.91 | > 20
LB771-HNC (head and neck, adherent, top dose 20 µM) | 0.958 | > 20
LB831-BLC (bladder, adherent, top dose 20 µM) | 0.978 | > 20
LB996-RCC (kidney, adherent, top dose 20 µM) | 0.982 | > 20

— the supplement of paper PMC4967469
